Data taken from PubChem BioAssay AID1963576 (National Center for Advancing Translational Sciences (NCATS), 2024).
Among all 46,000 compounds or so, about 60 (0.1%) were called active. Not shown: some 3% with an inconclusive outcome. The call rests on the fitted dose curve; in most records, active means well fitted inhibition curve with a large enough effect; inconclusive means small, poorly fitted or top-dose-only effect; inactive means no such curve, though single readings can be large or run the other way. This is one part of the list.

assay: Primary qHTS assay for Inhibitors of ovarian cancer metastasis using an organotypic tumor microenvironment (TME) model.; further: nearly all actives have a fitted effect of over 65% in size;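 on activity change, negative = inhibition: plate controls were DMSO wells for no effect and tomatine positive control wells for full effect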; settings: SKOV3ip1-GFP adhesion/invasion on 3D omental model, fluorescence; series mostly up to 45.8 µM; activity change, negative = inhibition: at the top concentration
Summary of the method: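 Adhesion/invasion was scored as fixed GFP-labeled SKOV3ip1 cell counts (488/509 nm), normalized to DMSO and tomatine controls. Cancer cells in serum-free medium, with four compound doses (0.36-46 umol/L), sat 2 hr at RT then 16 hr at 37 C on a 48 hr fibroblast/mesothelial/ECM culture.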

Structure (SMILES) | activity change, negative = inhibition | outcome
Cc1cc(C)c(Nc2ncnc3c2cnn3C)c(C)c1 | inactive: 3.4% | –
Cc1ccc(NC(=O)CCc2c(C)nc3c(-c4ccc(F)cc4)c(C)nn3c2C)cc1F | inactive: -2.77% | –
Cc1ccc2oc(-c3ccc(NC(=O)CCC(=O)O)cc3)nc2c1 | – | inactive
Cc1nn(CC(=O)NC2CCC(C)CC2)c(=O)c2c1sc1ccccc12 (configuration not stated) | inactive: 8.6% | –
COc1cc(NC(=O)CN2CCN(c3ccc(F)cc3)CC2)cc(OC)c1 | inactive: 3.08% | –
COC(=O)N1CCCc2cc(S(=O)(=O)NCc3ccccc3)ccc21 | inactive: 0.437% | –
CCOc1ccc(NC(=O)c2sc3nc4n(c(=O)c3c2C)CCC4)cc1 | inactive: 7.47% | –
O=C(/C=C/c1ccccc1Cl)N1CCC(c2nc3ccccc3o2)CC1 | – | inactive
COc1ccc(C2CC(=O)Nc3c2c(=O)[nH]c2nc4ccccc4n32)cc1 (configuration not stated) | inactive: 5.39% | –
COc1ccc(-c2nn3c(=O)cc(CN4CCN(C(=O)/C=C/c5ccccc5)CC4)nc3s2)cc1 | inactive: 7.01% | –
CCOc1cc(-c2ccc(OC(=O)c3ccccc3Cl)c(OC)c2)cc(=O)c2c(C)oc(C)c12 | inactive: -4.96% | –
Cc1cccc(C)c1NC(=O)c1ccc2c(c1)nnn2C1CCCC1 | inactive: -24.9% | –
CC(=O)c1ccc(N2CCN(S(=O)(=O)c3ccc(-c4coc(C)n4)cc3)CC2)cc1 | inactive: -7.65% | –
COc1ccccc1N1CCN(C(=O)Cn2c(=O)n3nc(-c4cccc(F)c4)nc3c3ccccc32)CC1 | inactive: -0.0365% | –
Cc1ccccc1COC(=O)c1nn(-c2ccccc2)nc1N | inactive: 14.8% | –
CCNC(=O)c1ccc(NC(=O)N2CCCCc3ccccc32)cc1 | inactive: 13.1% | –
CCCCN(CC)CCNC(=O)C1CCN(S(=O)(=O)c2cccc3nsnc23)CC1 | inactive: 25.2% | –
CCn1cc(C(=O)Nc2cccc(Cl)c2)c2cc(OC)c(OC)cc2c1=O | – | inactive
Cc1cc(C)cc(NC(=O)CSc2nc3c(c(=O)[nH]2)CN(Cc2ccc(F)cc2)CC3)c1 | inactive: 20.1% | –
O=C(CCn1c(=O)c2cccn2c2cccnc21)N1CCN(c2ccccc2)CC1 | inactive: -19.3% | –
Cn1c(=O)oc2cc(S(=O)(=O)CCC(=O)N3CCN(c4ccccc4F)CC3)ccc21 | inactive: -4.85% | –
CCN(C(=O)C1CCN(S(=O)(=O)c2cc(Br)cc3c2N(C(C)=O)CC3)CC1)c1cccc(C)c1 | inactive: 4.2% | –
O=C(CSc1nccn1-c1cccc(Cl)c1)Nc1ccc2c(c1)OCO2 | inactive: -5.84% | –
CCC(=O)C1=C(c2ccc(F)cc2)N(C(=O)CC)n2c(nnc2-c2ccc(OC)cc2)S1 | inactive: 1.86% | –
COc1ccc(-c2cnc(C)o2)cc1S(=O)(=O)Nc1ccc(NC(C)=O)cc1 | – | inactive
CC(CCc1ccccc1)NC(=O)Cn1ncc2c3ccccc3n(Cc3ccccc3F)c2c1=O (configuration not stated) | inactive: 4.55% | –
CCc1nn(CC(=O)N2CCN(c3ccc(OC)cc3)CC2)c(=O)c2cc3sccc3n12 | inactive: -2.9% | –
